Article PMC4274898
No constants are given. Whether binding was seen depends on the method and setting. Some binding calls cover weakened binding; strength is not graded here.

T1: ARF12 (Arabidopsis thaliana) (UniProt Q9XID4)
T1 sequence: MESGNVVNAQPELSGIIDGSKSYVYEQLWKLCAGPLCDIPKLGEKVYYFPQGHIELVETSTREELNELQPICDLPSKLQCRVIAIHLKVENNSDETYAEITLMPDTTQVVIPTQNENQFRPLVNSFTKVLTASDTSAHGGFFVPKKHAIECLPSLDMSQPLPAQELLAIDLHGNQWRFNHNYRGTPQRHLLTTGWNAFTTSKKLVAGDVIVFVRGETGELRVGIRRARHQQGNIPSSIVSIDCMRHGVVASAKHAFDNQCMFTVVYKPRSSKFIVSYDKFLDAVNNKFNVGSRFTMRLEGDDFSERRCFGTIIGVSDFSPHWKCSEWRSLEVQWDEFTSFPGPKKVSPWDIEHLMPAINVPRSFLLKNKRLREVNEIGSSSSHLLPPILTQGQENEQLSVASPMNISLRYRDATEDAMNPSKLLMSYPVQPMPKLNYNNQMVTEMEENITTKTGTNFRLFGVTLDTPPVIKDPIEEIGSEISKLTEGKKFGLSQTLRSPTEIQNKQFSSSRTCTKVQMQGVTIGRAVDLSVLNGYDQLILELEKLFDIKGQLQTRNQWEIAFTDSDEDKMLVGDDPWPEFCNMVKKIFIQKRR

T2: ARF19 (Arabidopsis thaliana) (UniProt Q8RYC8)
T2 sequence: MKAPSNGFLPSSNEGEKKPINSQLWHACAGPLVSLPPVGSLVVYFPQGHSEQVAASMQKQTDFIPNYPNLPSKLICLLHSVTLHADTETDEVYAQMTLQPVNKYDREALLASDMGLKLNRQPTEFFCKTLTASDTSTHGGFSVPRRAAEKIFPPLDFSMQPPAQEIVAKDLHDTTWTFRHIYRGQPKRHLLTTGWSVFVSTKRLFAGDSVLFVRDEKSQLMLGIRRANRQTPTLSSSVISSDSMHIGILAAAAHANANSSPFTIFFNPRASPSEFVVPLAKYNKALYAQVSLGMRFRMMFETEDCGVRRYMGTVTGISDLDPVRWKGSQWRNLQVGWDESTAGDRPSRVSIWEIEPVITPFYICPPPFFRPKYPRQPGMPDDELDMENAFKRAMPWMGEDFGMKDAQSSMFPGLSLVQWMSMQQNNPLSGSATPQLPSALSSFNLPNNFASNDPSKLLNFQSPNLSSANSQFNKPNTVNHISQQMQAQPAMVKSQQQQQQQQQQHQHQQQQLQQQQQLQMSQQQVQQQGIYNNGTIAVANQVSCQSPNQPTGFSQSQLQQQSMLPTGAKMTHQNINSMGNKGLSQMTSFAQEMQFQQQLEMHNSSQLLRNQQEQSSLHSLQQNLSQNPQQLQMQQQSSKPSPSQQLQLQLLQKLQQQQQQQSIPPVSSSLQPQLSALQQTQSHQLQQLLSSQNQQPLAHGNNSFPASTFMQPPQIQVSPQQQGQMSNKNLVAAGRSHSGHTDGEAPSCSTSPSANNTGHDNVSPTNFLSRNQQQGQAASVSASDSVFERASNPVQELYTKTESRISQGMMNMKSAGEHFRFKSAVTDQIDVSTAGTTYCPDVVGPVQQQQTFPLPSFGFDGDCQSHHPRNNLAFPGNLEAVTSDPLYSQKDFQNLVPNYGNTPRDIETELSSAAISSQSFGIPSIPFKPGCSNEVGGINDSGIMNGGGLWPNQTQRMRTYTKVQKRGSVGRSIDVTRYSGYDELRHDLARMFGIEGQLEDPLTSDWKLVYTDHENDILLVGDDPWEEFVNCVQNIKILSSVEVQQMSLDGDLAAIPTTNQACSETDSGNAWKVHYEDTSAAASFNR

T3: ARF4 (Arabidopsis thaliana) (UniProt Q9ZTX9)
T3 sequence: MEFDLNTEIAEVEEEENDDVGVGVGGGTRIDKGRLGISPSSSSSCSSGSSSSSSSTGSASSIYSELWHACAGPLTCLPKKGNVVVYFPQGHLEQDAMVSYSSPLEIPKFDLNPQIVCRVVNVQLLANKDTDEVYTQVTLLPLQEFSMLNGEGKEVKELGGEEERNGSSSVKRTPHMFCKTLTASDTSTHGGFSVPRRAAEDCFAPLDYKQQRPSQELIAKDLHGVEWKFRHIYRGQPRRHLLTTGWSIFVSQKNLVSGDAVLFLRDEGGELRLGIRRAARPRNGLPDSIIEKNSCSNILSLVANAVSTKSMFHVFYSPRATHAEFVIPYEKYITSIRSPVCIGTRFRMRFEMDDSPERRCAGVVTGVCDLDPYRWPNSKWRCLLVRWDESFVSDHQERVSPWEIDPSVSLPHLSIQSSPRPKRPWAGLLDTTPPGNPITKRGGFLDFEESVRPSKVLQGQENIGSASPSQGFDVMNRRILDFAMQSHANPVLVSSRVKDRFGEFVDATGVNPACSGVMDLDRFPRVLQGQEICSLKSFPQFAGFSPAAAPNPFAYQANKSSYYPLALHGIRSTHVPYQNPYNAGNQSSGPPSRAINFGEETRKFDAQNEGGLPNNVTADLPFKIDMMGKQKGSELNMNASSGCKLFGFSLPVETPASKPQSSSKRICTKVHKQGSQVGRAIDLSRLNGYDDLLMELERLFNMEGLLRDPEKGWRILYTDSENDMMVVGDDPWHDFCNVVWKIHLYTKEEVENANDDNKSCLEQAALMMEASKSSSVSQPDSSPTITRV


How the values were obtained:
Assay in all cases: two-hybrid; S. cerevisiae AH109 co-transformed with pGBKT7-ARF (bait) and pGADT7-Aux/IAA (prey); growth on SD/-Ade-His-Leu-Trp against SD/-Leu/-Trp; at least 10 independent colonies; serial dilutions for strength
[1] = biological target: T1, ARF12 (Arabidopsis thaliana)
[2] = biological target: T2, ARF19 (Arabidopsis thaliana)
[3] = biological target: T3, ARF4 (Arabidopsis thaliana)

Binder | binding [1] | binding [2] | binding [3]
Aux/IAA32 (protein, UniProt Q8RYC6 1-191) MDPNTPADFFKGSSKFHTYYSQTKKGGGVIDLGLSLRTIQHETYLPPARMIGLDGYGELIDWSQPSYNSITQLKSEDTGHQRLAQGYYNNEGESRGKYAYVKVNLDGLVVGRKVCLVDQGAYATLALQLNDMFGMQTVSGLRLFQTESEFSLVYRDREGIWRNVGDVPWKEFVESVDRMRIARRNDALLPF | no binding | binds | binds
Aux/IAA1 (protein, UniProt P49677 1-168) MEVTNGLNLKDTELRLGLPGAQEEQQLELSCVRSNNKRKNNDSTEESAPPPAKTQIVGWPPVRSNRKNNNNKNVSYVKVSMDGAPYLRKIDLKMYKNYPELLKALENMFKFTVGEYSEREGYKGSGFVPTYEDKDGDWMLVGDVPWDMFSSSCQKLRIMKGSEAPTAL | no binding | binds | binds
Aux/IAA6 (protein, UniProt Q38824 1-189) MAKEGLALEITELRLGLPGDNYSEISVCGSSKKKKRVLSDMMTSSALDTENENSVVSSVEDESLPVVKSQAVGWPPVCSYRRKKNNEEASKAIGYVKVSMDGVPYMRKIDLGSSNSYINLVTVLENLFGCLGIGVAKEGKKCEYIIIYEDKDRDWMLVGDVPWQMFKESCKRLRIVKRSDATGFGLQQD | no binding | binds | binds
Aux/IAA8 (protein, UniProt Q38826 1-321) MSYRLLSVDKDELVTSPCLKERNYLGLSDCSSVDSSTIPNVVGKSNLNFKATELRLGLPESQSPERETDFGLLSPRTPDEKLLFPLLPSKDNGSATTGHKNVVSGNKRGFADTWDEFSGVKGSVRPGGGINMMLSPKVKDVSKSIQEERSHAKGGLNNAPAAKAQVVGWPPIRSYRKNTMASSTSKNTDEVDGKPGLGVLFVKVSMDGAPYLRKVDLRTYTSYQQLSSALEKMFSCFTLGQCGLHGAQGRERMSEIKLKDLLHGSEFVLTYEDKDGDWMLVGDVPWEIFTETCQKLKIMKGSDSIGLAPGAVEKSKNKERV | no binding | binds | binds
Aux/IAA9 (protein, UniProt Q38827 1-338) MSPEEELQSNVSVASSSPTSNCISRNTLGGLKEHNYLGLSDCSSVGSSTLSPLAEDDKATISLKATELTLGLPGSQSPARDTELNLLSPAKLDEKPFFPLLPSKDEICSSSQKNNASGNKRGFSDTMDQFAEAKSSVYTEKNWMFPEAAATQSVTKKDVPQNIPKGQSSTTNNSSSPPAAKAQIVGWPPVRSYRKNTLATTCKNSDEVDGRPGSGALFVKVSMDGAPYLRKVDLRSYTNYGELSSALEKMFTTFTLGQCGSNGAAGKDMLSETKLKDLLNGKDYVLTYEDKDGDWMLVGDVPWEMFIDVCKKLKIMKGCDAIGLAAAPRAMEKSKMRA | no binding | binds | binds
Aux/IAA10 (protein, UniProt Q38828 1-261) MNGLQEVCSSSGSVMIGLPAEEDENAAHSSEDSSCPDESVSETELDLALGLSIGRRKVRSSLSSSSSSLTRESGTKRSADSSPAAASNATRQVAVGWPPLRTYRINSLVNQAKSLATEGGLSSGIQKETTKSVVVAAKNDDACFIKSSRTSMLVKVTMDGVIIGRKVDLNALDSYAALEKTLDLMFFQIPSPVTRSNTQGYKTIKETCTSKLLDGSSEYIITYQDKDGDWMLVGDVPWQMFLGSVTRLRIMKTSIGAGVGK | no binding | binds | binds
Aux/IAA11 (protein, UniProt Q38829 1-246) MEGGSASGSASALSNDENLVVSCEDSSSPIGNELELGLTLSLGRKGYRDCRVYADDSSSSSSSSSLSRASVIAGIKRTADSMAATSGQVVGWPPIRTYRMNSMVNQAKASATEDPNLEISQAVNKNRSDSTKMRNSMFVKVTMDGIPIGRKIDLNAHKCYESLSNTLEEMFLKPKLGSRTLETDGHMETPVKILPDGSSGLVLTYEDKEGDWMLVGDVPWGMFIGSVRRLRIMKTSEATGKAQMIL | no binding | binds | binds
Aux/IAA12 (protein, UniProt Q38830 1-239) MRGVSELEVGKSNLPAESELELGLGLSLGGGAWKERGRILTAKDFPSVGSKRSAESSSHQGASPPRSSQVVGWPPIGLHRMNSLVNNQAMKAARAEEGDGEKKVVKNDELKDVSMKVNPKVQGLGFVKVNMDGVGIGRKVDMRAHSSYENLAQTLEEMFFGMTGTTCREKVKPLRLLDGSSDFVLTYEDKEGDWMLVGDVPWRMFINSVKRLRIMGTSEASGLAPRRQEQKDRQRNNPV | no binding | binds | binds
Aux/IAA13 (protein, UniProt Q38831 1-247) MITELEMGKGESELELGLGLSLGGGTAAKIGKSGGGGAWGERGRLLTAKDFPSVGSKRAADSASHAGSSPPRSSSQVVGWPPIGSHRMNSLVNNQATKSAREEEEAGKKKVKDDEPKDVTKKVNGKVQVGFIKVNMDGVAIGRKVDLNAHSSYENLAQTLEDMFFRTNPGTVGLTSQFTKPLRLLDGSSEFVLTYEDKEGDWMLVGDVPWRMFINSVKRLRVMKTSEANGLAARNQEPNERQRKQPV | no binding | binds | binds
Aux/IAA15 (protein, UniProt Q9C966 1-179) MSPEEYVRVWPDSGDLGGTELTLALPGTPTNASEGPKKFGNKRRFLETVDLKLGEAHENNYISSMVTNDQLVGWPPVATARKTVRRKYVKVALDGAAYLRKVDLGMYDCYGQLFTALENMFQGIITICRVTELERKGEFVATYEDKDGDLMLVGDVPWMMFVESCKRMRLMKTGDAIGL | no binding | binds | binds
Aux/IAA2 (protein, UniProt P49678 1-174) MAYEKVNELNLKDTELCLGLPGRTEKIKEEQEVSCVKSNNKRLFEETRDEEESTPPTKTQIVGWPPVRSSRKNNNSVSYVKVSMDGAPYLRKIDLKTYKNYPELLKALENMFKVMIGEYCEREGYKGSGFVPTYEDKDGDWMLVGDVPWDMFSSSCKRLRIMKGSDAPALDSSL | no binding | binds | binds
